# Some of the results follow.
# Key:
# Assay in all cases: glycan array binding signal (z-score within array); higher = stronger binding
# Details in all cases: glycan notation: IUPAC condensed, linker removed
# [1] = target: Neu5Ac(a2-3)Gal(b1-4)GlcNAc(b1-6)GalNAc
# Summary of the method: (§1)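 The binding signal is a Z-score computed within each array and averaged over linkers. Arrays of the same protein sequence at different concentrations or buffers were also averaged together. Data originate from 3228 arrays in the Consortium for Functional Glycomics database, kept only where the protein sequence was available.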
# [2] = target: Neu5Ac(a2-3)Gal(b1-4)GlcNAc(b1-6)[Gal(b1-3)]GalNAc
# Summary of the method: as §1
# [3] = target: Neu5Ac(a2-3)Gal(b1-4)GlcNAc(b1-6)[Neu5Ac(a2-3)Gal(b1-3)]GalNAc
# Summary of the method: as §1
# [4] = target: Neu5Ac(a2-3)Gal(b1-4)GlcNAc6S
# Summary of the method: as §1
# [5] = target: Neu5Ac(a2-3)Gal(b1-4)[Fuc(a1-3)]GlcNAc
# Summary of the method: as §1
# [6] = target: Neu5Ac(a2-3)Gal(b1-4)[Fuc(a1-3)]GlcNAc(b1-2)Man
# Summary of the method: as §1
# [7] = target: Neu5Ac(a2-3)Gal(b1-4)[Fuc(a1-3)]GlcNAc(b1-3)Gal
# Summary of the method: as §1
# [8] = target: Neu5Ac(a2-3)Gal(b1-4)[Fuc(a1-3)]GlcNAc(b1-3)Gal(b1-4)GlcNAc
# Summary of the method: as §1
# [9] = target: Neu5Ac(a2-3)Gal(b1-4)[Fuc(a1-3)]GlcNAc(b1-3)Gal(b1-4)[Fuc(a1-3)]GlcNAc(b1-3)Gal(b1-4)[Fuc(a1-3)]GlcNAc
# Summary of the method: as §1
# [10] = target: Neu5Ac(a2-3)Gal(b1-4)[Fuc(a1-3)]GlcNAc(b1-3)GalNAc
# Summary of the method: as §1
# [11] = target: Neu5Ac(a2-3)Gal(b1-4)[Fuc(a1-3)]GlcNAc(b1-6)[Gal(b1-3)]GalNAc
# Summary of the method: as §1
# [12] = target: Neu5Ac(a2-3)Gal(b1-4)[Fuc(a1-3)]GlcNAc(b1-6)[Neu5Ac(a2-3)Gal(b1-3)]GalNAc
# Summary of the method: as §1
# [13] = target: Neu5Ac(a2-3)Gal(b1-4)[Fuc(a1-3)]GlcNAc6S
# Summary of the method: as §1
# [14] = target: Neu5Ac(a2-3)Gal6S(b1-4)GlcNAc
# Summary of the method: as §1
# [15] = target: Neu5Ac(a2-3)Gal6S(b1-4)[Fuc(a1-3)]GlcNAc
# Summary of the method: as §1
# [16] = target: Neu5Ac(a2-3)GalNAc
# Summary of the method: as §1
# [17] = target: Neu5Ac(a2-3)GalNAc(b1-4)GlcNAc
# Summary of the method: as §1
# [18] = target: Neu5Ac(a2-3)[GalNAc(b1-4)]Gal(b1-4)Glc
# Summary of the method: as §1
# [19] = target: Neu5Ac(a2-3)[GalNAc(b1-4)]Gal(b1-4)GlcNAc
# Summary of the method: as §1
# [20] = target: Neu5Ac(a2-3)[GalNAc(b1-4)]Gal(b1-4)GlcNAc(b1-3)GalNAc
# Summary of the method: as §1
# [21] = target: Neu5Ac(a2-3)[Neu5Ac(a2-6)]GalNAc
# Summary of the method: as §1
# [22] = target: Neu5Ac(a2-6)Gal
# Summary of the method: as §1
# [23] = target: Neu5Ac(a2-6)Gal(b1-3)GlcNAc(b1-3)[Gal(b1-4)GlcNAc(b1-6)]Gal(b1-4)Glc
# Summary of the method: as §1
# [24] = target: Neu5Ac(a2-6)Gal(b1-4)Glc
# Summary of the method: as §1
# [25] = target: Neu5Ac(a2-6)Gal(b1-4)GlcNAc
# Summary of the method: as §1
# [26] = target: Neu5Ac(a2-6)Gal(b1-4)GlcNAc(b1-2)Man
# Summary of the method: as §1
# [27] = target: Neu5Ac(a2-6)Gal(b1-4)GlcNAc(b1-2)Man(a1-3)Man(b1-4)GlcNAc(b1-4)GlcNAc
# Summary of the method: as §1
# [28] = target: Neu5Ac(a2-6)Gal(b1-4)GlcNAc(b1-2)Man(a1-3)[Gal(b1-4)GlcNAc(b1-2)Man(a1-6)]Man(b1-4)GlcNAc(b1-4)GlcNAc
# Summary of the method: as §1
# [29] = target: Neu5Ac(a2-6)Gal(b1-4)GlcNAc(b1-2)Man(a1-3)[GlcNAc(b1-2)Man(a1-6)]Man(b1-4)GlcNAc(b1-4)GlcNAc
# Summary of the method: as §1
# [30] = target: Neu5Ac(a2-6)Gal(b1-4)GlcNAc(b1-2)Man(a1-3)[GlcNAc(b1-4)][Neu5Ac(a2-6)Gal(b1-4)GlcNAc(b1-2)Man(a1-6)]Man(b1-4)GlcNAc(b1-4)GlcNAc
# Summary of the method: as §1
# [31] = target: Neu5Ac(a2-6)Gal(b1-4)GlcNAc(b1-2)Man(a1-3)[Man(a1-6)]Man(b1-4)GlcNAc(b1-4)GlcNAc
# Summary of the method: as §1
# [32] = target: Neu5Ac(a2-6)Gal(b1-4)GlcNAc(b1-2)Man(a1-3)[Neu5Ac(a2-3)Gal(b1-4)GlcNAc(b1-2)Man(a1-6)]Man(b1-4)GlcNAc(b1-4)GlcNAc
# Summary of the method: as §1
# [33] = target: Neu5Ac(a2-6)Gal(b1-4)GlcNAc(b1-2)Man(a1-3)[Neu5Ac(a2-6)Gal(b1-4)GlcNAc(b1-2)Man(a1-6)]Man(b1-4)GlcNAc(b1-4)GlcNAc
# Summary of the method: as §1
# [34] = target: Neu5Ac(a2-6)Gal(b1-4)GlcNAc(b1-2)Man(a1-3)[Neu5Ac(a2-6)Gal(b1-4)GlcNAc(b1-2)Man(a1-6)]Man(b1-4)GlcNAc(b1-4)[Fuc(a1-6)]GlcNAc
# Summary of the method: as §1
# [35] = target: Neu5Ac(a2-6)Gal(b1-4)GlcNAc(b1-2)Man(a1-6)Man(b1-4)GlcNAc(b1-4)GlcNAc
# Summary of the method: as §1
# [36] = target: Neu5Ac(a2-6)Gal(b1-4)GlcNAc(b1-2)Man(a1-6)[Gal(b1-4)GlcNAc(b1-2)Man(a1-3)]Man(b1-4)GlcNAc(b1-4)GlcNAc
# Summary of the method: as §1
# [37] = target: Neu5Ac(a2-6)Gal(b1-4)GlcNAc(b1-2)Man(a1-6)[GlcNAc(b1-2)Man(a1-3)]Man(b1-4)GlcNAc(b1-4)GlcNAc
# Summary of the method: as §1
# [38] = target: Neu5Ac(a2-6)Gal(b1-4)GlcNAc(b1-2)Man(a1-6)[Man(a1-3)]Man(b1-4)GlcNAc(b1-4)GlcNAc
# Summary of the method: as §1
# [39] = target: Neu5Ac(a2-6)Gal(b1-4)GlcNAc(b1-2)[Neu5Ac(a2-6)Gal(b1-4)GlcNAc(b1-4)]Man(a1-3)[GlcNAc(b1-4)][Neu5Ac(a2-6)Gal(b1-4)GlcNAc(b1-2)[Neu5Ac(a2-6)Gal(b1-4)GlcNAc(b1-6)]Man(a1-6)]Man(b1-4)GlcNAc(b1-4)GlcNAc
# Summary of the method: as §1
# [40] = target: Neu5Ac(a2-6)Gal(b1-4)GlcNAc(b1-2)[Neu5Ac(a2-6)Gal(b1-4)GlcNAc(b1-4)]Man(a1-3)[GlcNAc(b1-4)][Neu5Ac(a2-6)Gal(b1-4)GlcNAc(b1-4)Man(a1-6)]Man(b1-4)GlcNAc(b1-4)GlcNAc
# Summary of the method: as §1
# [41] = target: Neu5Ac(a2-6)Gal(b1-4)GlcNAc(b1-2)[Neu5Ac(a2-6)Gal(b1-4)GlcNAc(b1-6)]Man(a1-6)[Neu5Ac(a2-6)Gal(b1-4)GlcNAc(b1-2)Man(a1-3)][GlcNAc(b1-4)]Man(b1-4)GlcNAc(b1-4)GlcNAc
# Summary of the method: as §1
# [42] = target: Neu5Ac(a2-6)Gal(b1-4)GlcNAc(b1-3)Gal(b1-3)GlcNAc
# Summary of the method: as §1
# [43] = target: Neu5Ac(a2-6)Gal(b1-4)GlcNAc(b1-3)Gal(b1-4)GlcNAc
# Summary of the method: as §1
# [44] = target: Neu5Ac(a2-6)Gal(b1-4)GlcNAc(b1-3)Gal(b1-4)GlcNAc(b1-2)Man(a1-3)[Neu5Ac(a2-6)Gal(b1-4)GlcNAc(b1-3)Gal(b1-4)GlcNAc(b1-2)Man(a1-6)]GalNAc
# Summary of the method: as §1
# [45] = target: Neu5Ac(a2-6)Gal(b1-4)GlcNAc(b1-3)Gal(b1-4)GlcNAc(b1-3)Gal(b1-4)GlcNAc
# Summary of the method: as §1
# [46] = target: Neu5Ac(a2-6)Gal(b1-4)GlcNAc(b1-3)Gal(b1-4)GlcNAc(b1-3)Gal(b1-4)GlcNAc(b1-2)Man(a1-3)[Neu5Ac(a2-6)Gal(b1-4)GlcNAc(b1-3)Gal(b1-4)GlcNAc(b1-3)Gal(b1-4)GlcNAc(b1-2)Man(a1-6)]GalNAc
# Summary of the method: as §1
binder,measurement,setting,value
B725 (Bifidobacterium sp) (protein) MNNTTRAVIATAAIGALLIPLAGCGNTTTSSGKTELTVWSWDASIDRAAKSFMKANPDITVKVSNVGSTEETYTALNNAAQAGSGLPDVTLIEYLAIPQFVHSDTLMDLSKVYNTAKLKDTFTPGTWNSVNINGGLYAMPADSGPMAYFYDKDVFDKAGISEPPTTWDEFYEDAKKIRATGSYITSDSGDAGLFNAMMWAMGGHAYKLNDDKLTINIAKDKGAQRFMDLWQKMRDEDLIDVHTKTWTDDWMKSLGDGSIASLISGAWMANNLLQGVPQATGKFRVALLPTIDGTPINGEYGGSGLAITKKIPDGKLDAAKKFVEYVTTNDEGIDARVSNGSFPATTKTLNQKDFLAKTTLRNTDGSDNEFFGGQKYNEIFSQAAKDVTGKWEFLPFEPYARSVYNDNMGSFFAGKTSFRTAADNWQKALKDYAKDQGFTVQ,glycan array binding signal (z-score),[1],-0.229
same,glycan array binding signal (z-score),[2],-0.216
same,glycan array binding signal (z-score),[3],-0.223
same,glycan array binding signal (z-score),[4],-0.222
same,glycan array binding signal (z-score),[5],-0.227
same,glycan array binding signal (z-score),[6],-0.162
same,glycan array binding signal (z-score),[7],-0.224
same,glycan array binding signal (z-score),[8],-0.19
same,glycan array binding signal (z-score),[9],-0.217
same,glycan array binding signal (z-score),[10],-0.193
same,glycan array binding signal (z-score),[11],-0.206
same,glycan array binding signal (z-score),[12],-0.223
same,glycan array binding signal (z-score),[13],-0.234
same,glycan array binding signal (z-score),[14],-0.229
same,glycan array binding signal (z-score),[15],-0.233
same,glycan array binding signal (z-score),[16],-0.229
same,glycan array binding signal (z-score),[17],-0.216
same,glycan array binding signal (z-score),[18],-0.23
same,glycan array binding signal (z-score),[19],-0.23
same,glycan array binding signal (z-score),[20],-0.222
same,glycan array binding signal (z-score),[21],-0.228
same,glycan array binding signal (z-score),[22],-0.222
same,glycan array binding signal (z-score),[23],-0.205
same,glycan array binding signal (z-score),[24],-0.232
same,glycan array binding signal (z-score),[25],-0.21
same,glycan array binding signal (z-score),[26],-0.206
same,glycan array binding signal (z-score),[27],-0.226
same,glycan array binding signal (z-score),[28],-0.213
same,glycan array binding signal (z-score),[29],-0.232
same,glycan array binding signal (z-score),[30],-0.227
same,glycan array binding signal (z-score),[31],-0.229
same,glycan array binding signal (z-score),[32],-0.199
same,glycan array binding signal (z-score),[33],-0.22
same,glycan array binding signal (z-score),[34],-0.217
same,glycan array binding signal (z-score),[35],-0.207
same,glycan array binding signal (z-score),[36],-0.216
same,glycan array binding signal (z-score),[37],-0.23
same,glycan array binding signal (z-score),[38],-0.225
same,glycan array binding signal (z-score),[39],-0.234
same,glycan array binding signal (z-score),[40],-0.212
same,glycan array binding signal (z-score),[41],-0.223
same,glycan array binding signal (z-score),[42],-0.174
same,glycan array binding signal (z-score),[43],-0.216
same,glycan array binding signal (z-score),[44],0.154
same,glycan array binding signal (z-score),[45],-0.185
same,glycan array binding signal (z-score),[46],-0.129

# — the supplement of paper PMC8728848
